According to PubChem BioAssay (NCATS):
The inconclusive results got no clear call from the source; some entries with a clear call stand among them for comparison. For part of these data: Potencies of inconclusive entries are doubtful fits and often do not repeat. Calls of active or inactive are those of the source. Unless noted, calls come from the whole dose curve; as a rule, active = well fitted activation curve with a large enough effect; inconclusive = small, poorly fitted or top-dose-only effect; inactive = flat fitted curve, though single readings scatter.
Tags give direction and shape of the fitted curve.

Molecular target: 3',5'-cyclic-AMP phosphodiesterase 4B (Homo sapiens) (UniProt Q07343)
Sequence of UniProt Q07343 (Q07343 whole entry, looked up): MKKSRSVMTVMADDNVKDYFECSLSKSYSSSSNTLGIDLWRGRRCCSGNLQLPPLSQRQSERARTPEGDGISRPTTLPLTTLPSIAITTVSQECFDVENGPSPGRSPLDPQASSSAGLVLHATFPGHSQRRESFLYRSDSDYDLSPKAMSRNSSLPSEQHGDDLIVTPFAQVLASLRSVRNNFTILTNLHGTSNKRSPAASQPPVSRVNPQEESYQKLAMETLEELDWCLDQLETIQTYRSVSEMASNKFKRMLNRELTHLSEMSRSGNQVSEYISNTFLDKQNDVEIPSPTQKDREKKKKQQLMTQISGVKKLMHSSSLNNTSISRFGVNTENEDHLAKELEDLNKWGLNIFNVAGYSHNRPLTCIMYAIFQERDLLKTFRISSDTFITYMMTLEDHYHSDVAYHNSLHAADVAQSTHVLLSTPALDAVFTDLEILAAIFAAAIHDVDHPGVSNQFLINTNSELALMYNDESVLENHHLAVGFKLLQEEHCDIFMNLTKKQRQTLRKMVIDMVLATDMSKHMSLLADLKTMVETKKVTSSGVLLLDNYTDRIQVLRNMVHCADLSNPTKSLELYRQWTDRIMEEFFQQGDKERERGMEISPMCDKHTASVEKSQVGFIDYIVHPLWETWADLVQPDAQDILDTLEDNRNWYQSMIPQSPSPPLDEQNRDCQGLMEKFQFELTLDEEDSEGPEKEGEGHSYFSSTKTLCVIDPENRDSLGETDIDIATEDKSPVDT
Assay: qHTS Assay for Inhibitors of PDE-IV (AID 607; active = well fitted activation curve with a large enough effect in the main read-out, with a control signal flat, not every such curve was filed as active; inconclusive = small, poorly fitted or top-dose-only effect, or effect the other way, or a change in a side signal; note: potency is the fitted concentration of half-maximal effect; for activation (PDE inhibition): % of control where 0% means no effect)
Conditions: HEK293 ACTOne CNG channel cells, membrane potential fluorescence; activation (PDE inhibition): at 22.9 µM (top of the series)
Procedure, shortened: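 ACTOne HEK293 cells carry a modified cAMP-gated CNG channel and express endogenous PDE4; plated 1000 cells/well, compounds up to 22.9 uM final. Membrane-potential dye fluorescence (ex 535/em 590) was read; parental cells received 10 uM forskolin + 100 uM RO 20-1724.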
For `NC(=NCCc1ccc(I)cc1)SCCCc1cnc[nH]1`, the Potency was inconclusive: 19 µM [activator, partial curve, poor fit]. In the case of `CCC[C@@](C)(COC(N)=O)COC(=O)NC(C)C`, the Potency was “inactive”. In the case of `CS(=O)(=O)O[C@H]1CN2CCC1CC2`, the “activation (PDE inhibition)” value was inactive: -7.48%. For `COC(=O)[C@@H]1c2cc3c(c(O)c2[C@@H](O)C[C@]1(C)O)C(=O)c1c(O)cc2c(c1C3=O)O[C@H]1O[C@@]2(C)[C@@H](O)[C@H](N(C)C)[C@H]1O`, the “activation (PDE inhibition)” value was inactive: -2.33%.

System: not listed separately
Assay: Cellular Toxicity (caspase-3) Jurkat (AID 655);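 note: cells exposed to compound for 16 h at 37 °C before reading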
Conditions: Jurkat caspase-3 activation, luminescence; caspase-3 activation: at 92.2 µM (top of the series), DMSO = 0%, tamoxifen = 100%
Procedure, shortened: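 Jurkat cells (5000/well) in complete medium were treated with compounds for 16 hr at 37 °C, then Caspase-Glo 3/7 luminescence was read after 20 min at room temperature. Data normalized to DMSO (basal) and 100 uM tamoxifen (100%); AC50 from Hill fit.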
In the case of `FC(F)(F)c1ccc(Cl)cc1`, the caspase-3 activation was inactive: 2.36%. With `O=[N+]([O-])c1cc(Cl)c(Cl)c(Cl)c1` the caspase-3 activation was inconclusive: 49.3%. For `COC(C)(C)C`, the caspase-3 activation was inconclusive: 45%. In the case of `CCCC[N+](=O)[O-]`, the caspase-3 activation was active: 102%. For `C=CC(=O)OCCN(C)C`, the caspase-3 activation was inactive: 1.53%.
